Source: PubChem BioAssay AID504332 (National Center for Advancing Translational Sciences (NCATS), 2011)
Where “and” joins values, the source holds several entries; their conditions need not be identical. Equal values may be shown once. The whole screen tested about 350,000 compounds, of which about 31,000 (8.9%) were called active. This list was built around the results that the source calls inconclusive (neither active nor inactive); the mix of calls is not that of the screen. Calls come from the whole dose curve; as a rule, active = well fitted inhibition curve with a large enough effect; inconclusive = small, poorly fitted or top-dose-only effect; inactive = no such curve, though single readings can be large or run the other way. A potency beside an inconclusive call is a rough fit, not a confirmed value. Some compounds were tested as several samples or in several runs, with calls that do not always agree.

molecular target: Histone-lysine N-methyltransferase EHMT2 (Homo sapiens) (UniProt Q96KQ7); experiment: qHTS Assay for Inhibitors of Histone Lysine Methyltransferase G9a; settings: G9a H3K9 monomethylation, AlphaScreen, 2 h; activity, negative = inhibition: at 59 µM (top of the series) unless noted; note: nearly all actives have a fitted effect of over 75% in size
Method in brief: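 AlphaScreen detection with an anti-monomethyl H3K9 antibody quantified product after a 2 h room-temperature reaction containing 500 nM biotinylated H3K9 peptide, 20 µM SAM and 20 nM enzyme, which had been preincubated 15 min with compound.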
% is set by controls: 0 for no effect and ±100 for the full control effect; potency is the fitted concentration of half-maximal effect; tags give direction and shape of the fitted curve.

Sequence of UniProt Q96KQ7 (Q96KQ7 whole entry, looked up): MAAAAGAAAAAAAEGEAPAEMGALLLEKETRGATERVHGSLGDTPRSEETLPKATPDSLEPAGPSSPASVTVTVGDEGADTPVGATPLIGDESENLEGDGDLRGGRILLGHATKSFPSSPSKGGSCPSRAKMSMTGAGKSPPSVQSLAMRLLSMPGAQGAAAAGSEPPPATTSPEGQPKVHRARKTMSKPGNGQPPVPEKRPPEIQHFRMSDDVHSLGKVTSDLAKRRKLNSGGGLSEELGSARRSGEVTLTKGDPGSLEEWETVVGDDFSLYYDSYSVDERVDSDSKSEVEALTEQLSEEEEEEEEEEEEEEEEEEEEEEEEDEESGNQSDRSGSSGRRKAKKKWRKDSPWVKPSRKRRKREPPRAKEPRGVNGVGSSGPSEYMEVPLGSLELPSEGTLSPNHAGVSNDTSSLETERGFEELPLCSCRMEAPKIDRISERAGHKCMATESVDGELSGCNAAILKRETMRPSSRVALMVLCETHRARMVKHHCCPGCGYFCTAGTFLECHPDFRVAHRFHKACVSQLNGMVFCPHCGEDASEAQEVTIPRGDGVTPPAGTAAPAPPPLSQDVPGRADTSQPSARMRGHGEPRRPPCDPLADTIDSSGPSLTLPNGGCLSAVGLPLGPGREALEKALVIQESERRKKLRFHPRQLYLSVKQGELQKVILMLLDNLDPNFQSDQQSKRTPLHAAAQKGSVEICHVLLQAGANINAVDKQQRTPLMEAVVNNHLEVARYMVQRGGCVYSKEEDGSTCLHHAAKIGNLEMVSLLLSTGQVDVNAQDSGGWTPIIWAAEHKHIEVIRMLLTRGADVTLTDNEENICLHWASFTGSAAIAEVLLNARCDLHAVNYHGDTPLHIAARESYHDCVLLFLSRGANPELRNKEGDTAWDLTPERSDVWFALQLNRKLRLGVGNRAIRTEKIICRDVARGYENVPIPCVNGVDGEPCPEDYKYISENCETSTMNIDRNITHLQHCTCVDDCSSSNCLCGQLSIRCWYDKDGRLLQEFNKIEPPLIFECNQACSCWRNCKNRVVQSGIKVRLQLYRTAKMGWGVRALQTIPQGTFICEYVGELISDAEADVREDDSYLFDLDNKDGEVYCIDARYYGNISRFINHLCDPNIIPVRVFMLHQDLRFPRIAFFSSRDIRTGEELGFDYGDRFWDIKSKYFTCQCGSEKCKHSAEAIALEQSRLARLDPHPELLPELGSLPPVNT

Row | SMILES | Potency | activity, negative = inhibition
1 | Cc1cc(C)c(C)c(OCCN2CC(C)OC(C)C2)c1 (stereo unspecified) | active: 1.78 µM | –
2 | Cc1ccc(C)c2sc(N3CCN(C(=O)c4ccc([N+](=O)[O-])o4)CC3)nc12 | inconclusive: 4.47 µM [inhibitor, partial curve, poor fit] | –
3 | Cc1ccccc1NC(=O)c1ccc(CNS(=O)(=O)c2ccc3c(c2)C(C)(C)C(=O)N3C)cc1 | – | inactive: 6.69%
4 | O=C(CSc1ccccn1)Nc1cccc(NC(=O)CSc2ccccn2)n1 | inconclusive: 28.2 µM [inhibitor, single point] | –
5 | COc1cccc(Nc2ccc(-n3ccnc3)nn2)c1 | – | inactive: 9.62% [at 102 µM]
6 | CCn1c(CN2CCN(C)CC2)nc2cc(NC(=O)c3cc(OC)c(OC)c(OC)c3)ccc21 | inconclusive: 0.891 µM [inhibitor, full curve, poor fit] | –
7 | CCOc1ccccc1C(=O)NCC(c1ccc(N(C)C)cc1)N1CCCC1 (stereo unspecified) | – | inactive: 2.29% [at 12.7 µM]
8 | CN1CCN(CCCNc2c(C=O)c(=O)[nH]c3ccccc23)CC1 | inconclusive: 31.6 µM [inhibitor, single point] | –
9 | CS(=O)(=O)N1CCN(CC2CC3C=CC2C3)CC1 (stereo unspecified) | inconclusive: 3.55 µM [inhibitor, partial curve, poor fit] | –
10 | O=S(=O)(c1ccc(NC(=S)NN=C2CCCCC2)cc1)N1CCOCC1 | active: 6.31 µM | –
11 | CCn1c(-c2ccc(-c3ccccc3)cc2)c[nH]c1=S | inconclusive: 1.26 µM [inhibitor, full curve, poor fit] | –
12 | CCCCN(CCCC)Cc1ccc(C(=O)NNC(=O)Nc2ccccc2)o1 | inconclusive: 44.7 µM [inhibitor, partial curve, poor fit] | –
13 | COc1ccc(N=C2C(=Nc3ccc(OC)cc3)N(c3ccc(N(C)C)cc3)C(=S)N2c2ccc(OC)cc2)cc1 | active: 8.91 µM | –
14 | COc1ccc(S(=O)(=O)N2CCN(C)CC2)cc1C | – | inactive: -6.05% [at 102 µM]
15 | Cc1ccc(S(=O)(=O)NC(=O)c2ccc(Br)o2)cc1 | inactive and active: 35.5 µM | –
16 | CCOC(=O)c1cnc(-n2nc(C)cc2C)nc1N(C)C | inconclusive: 56.2 µM [inhibitor, partial curve, poor fit] | –
17 | Cc1cnc(C(=O)Nc2ccc(N3CCOCC3)cc2)cn1 | inconclusive: 39.8 µM [inhibitor, single point] | –
18 | O=C(NCc1ccco1)c1ccc2c(=O)n(-c3ccccc3)c(=S)[nH]c2c1 | inconclusive: 89.1 µM [inhibitor, single point] | –
19 | Cc1cc(C)n(-c2ccc(C(=O)OCC(=O)Nc3ccc([N+](=O)[O-])cc3)cc2)n1 | inconclusive: 28.2 µM [inhibitor, single point] | –
20 | C=CCn1c(-c2ccc(OC)c(OC)c2)n[nH]c1=S | – | inactive: -13.2%
21 | O=C(NCc1ccco1)C(=O)NCC1OCCCN1S(=O)(=O)c1ccccc1 (stereo unspecified) | – | inactive: -3.04%

Row | SMILES | Potency | activity, negative = inhibition
22 | CCN(c1cccc(C(F)(F)F)c1)S(=O)(=O)c1ccc2c(c1)CCN2C(C)=O | inconclusive: 17.8 µM [inhibitor, single point] | –
23 | O=C(NCCCN1CCOCC1)C(C(=O)NCCCN1CCOCC1)c1ncc(C(F)(F)F)cc1Cl | inconclusive: 50.1 µM [inhibitor, partial curve, poor fit] | –
24 | Cc1cc(C)n(-c2ccc(C(=O)N3CCN(S(=O)(=O)c4ccc(Cl)cc4)CC3)cc2)n1 | inconclusive: 0.891 µM [inhibitor, single point] | –
25 | CCOc1cc(NC(=S)NCC2CCCO2)c(OCC)cc1NC(=O)c1ccc(C)cc1 (stereo unspecified) | inconclusive: 35.5 µM [inhibitor, partial curve, poor fit] | –
26 | Cc1ccc(S(=O)(=O)N2CCC(C(=O)NCCN3CCCCCC3)CC2)cc1 | inconclusive: 39.8 µM [inhibitor, partial curve, poor fit] | –
27 | Cc1ccc2nc(-c3ccc(NC(=O)COCC(=O)O)cc3)sc2c1 | active: 50.1 µM | –
28 | COc1ccc(CN(CCC(c2ccco2)C(C)C)C(C)=O)cc1OC (stereo unspecified) | inconclusive: 44.7 µM [inhibitor, partial curve] | –
29 | O=C(CSc1nc2cc([N+](=O)[O-])ccc2n1-c1ccccc1)NCc1ccc2c(c1)OCO2 | inconclusive: 2.51 µM [inhibitor, full curve, poor fit] | –
30 | CCn1nnnc1NCc1ccc(N2CCCC2)cc1 | inconclusive: 2 µM [inhibitor, partial curve, poor fit] | –
31 | CCOc1ccccc1OCC(=O)NN1Cc2ccccc2C1=N | inconclusive: 25.1 µM [inhibitor, single point] | –
32 | O=[N+]([O-])c1ccc(O)c(CSc2nnnn2-c2ccccc2)c1 | inconclusive: 89.1 µM [inhibitor, single point] | –
33 | COC(=O)c1ccc(NC(=O)c2c(NCc3ccc(OC)c(OC)c3)sc3c2CCCC3)cc1 | inconclusive: 1.58 µM [inhibitor, full curve, poor fit] | –
34 | O=C(c1ccco1)N1CCN(CC(=O)N2CCCc3c2c(=O)oc2ccc(O)cc32)CC1 | inconclusive: 50.1 µM [inhibitor, partial curve] | –
35 | COC(=O)c1ccccc1NC(=O)CCCS(=O)(=O)c1nc(-c2ccccc2OC)cc(C(F)(F)F)n1 | inconclusive: 39.8 µM [inhibitor, partial curve, poor fit] | –
36 | COc1ccc(-c2csc(NC(=O)c3c(OC)cccc3OC)n2)cc1 | – | inactive: 10.9% [at 102 µM]
37 | O=Cc1ccc(-c2cccc(C(=O)O)c2)o1 | active: 50.1 µM | –
38 | Cc1ccc([C@@H]2C3COCC=C3C(C#N)=C(N)C2(C#N)C#N)o1 (stereo partly specified) | inconclusive: 70.8 µM [inhibitor, single point] | –
39 | O=C1NC2=C(CCc3ccccc32)C(c2ccc(Br)cc2)N1 (stereo unspecified) | active: 35.5 µM | –
40 | O=C(CN1CCN(S(=O)(=O)N2CCOCC2)CC1)Nc1ccc(Cl)c(Cl)c1 | inconclusive: 1.41 µM [inhibitor, partial curve, poor fit] | –
41 | O=C(O)c1ccc(Cl)c(S(=O)(=O)N(Cc2ccccc2)c2ccccc2)c1 | inconclusive: 89.1 µM [inhibitor, single point] | –
